Laboratory results from PubChem BioAssay AID1159614 (National Center for Advancing Translational Sciences (NCATS), 2016).
About 65 (0.1%) of roughly 45,000 compounds were called active. Calls come from the whole dose curve; as a rule, active = well fitted activation curve with a large enough effect; inconclusive = small, poorly fitted or top-dose-only effect; inactive = no such curve, though single readings can be large or run the other way. The list shows a part of the results.

biological target: Galactocerebrosidase (Homo sapiens) (UniProt P54803); assay: A Novel Cell-Based Assay to Identify Small Molecules for B -Galactocerebrosidase; settings: 145M-Twi-hGALC-G270D cells, HMU-beta-Gal fluorescence, 48 h; series mostly up to 57.5 µM; activation: at the top concentration; note: 0% is about no effect; nearly all actives have a fitted effect of over 65% in size
Outline: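 qHTS, 1536-well; 145M-Twi-hGALC-G270D cells (WT line also made) in DMEM/F12 + 10% FBS; compound incubation on live cells; HMU-β-gal 0.1 mM final, pH 5.2, NaTC; carbonate stop; fluorescence increase = enhanced residual activity.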

Sequence of UniProt P54803 (P54803 whole entry, looked up): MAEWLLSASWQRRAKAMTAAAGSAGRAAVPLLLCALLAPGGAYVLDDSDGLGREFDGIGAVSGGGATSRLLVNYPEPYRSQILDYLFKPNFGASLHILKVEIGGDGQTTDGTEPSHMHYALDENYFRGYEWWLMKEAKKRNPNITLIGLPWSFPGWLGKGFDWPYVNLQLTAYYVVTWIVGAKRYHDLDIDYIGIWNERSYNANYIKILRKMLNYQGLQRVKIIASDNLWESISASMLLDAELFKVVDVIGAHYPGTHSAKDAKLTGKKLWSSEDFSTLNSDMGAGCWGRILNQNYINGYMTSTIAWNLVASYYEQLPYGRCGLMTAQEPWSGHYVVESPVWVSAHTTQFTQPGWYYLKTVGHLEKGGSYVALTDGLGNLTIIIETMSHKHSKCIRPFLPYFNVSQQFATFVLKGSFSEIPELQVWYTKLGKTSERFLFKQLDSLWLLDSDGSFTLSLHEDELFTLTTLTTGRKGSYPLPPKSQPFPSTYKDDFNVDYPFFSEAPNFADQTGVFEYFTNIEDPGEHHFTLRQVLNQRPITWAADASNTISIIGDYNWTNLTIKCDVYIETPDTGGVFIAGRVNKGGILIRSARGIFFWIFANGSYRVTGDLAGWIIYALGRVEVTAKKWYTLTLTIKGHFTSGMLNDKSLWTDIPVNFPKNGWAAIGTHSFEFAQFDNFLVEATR

activation, inactive:
COc1ccc(OC)c(C2CC(=O)N(c3cccc(C)c3)C3=C2C(=O)OC3)c1 (stereo not drawn) -16.7%
Nc1nc(=S)c2[nH]cnc2[nH]1 -7.29%
CCOC(=O)c1c(NC(=O)CSc2cn(CCNC(=O)c3ccc(OCC)cc3)c3ccccc23)sc2c1CCCC2 4.08%
Cc1cc(N2CCCCC2)nc2ccc(NC(=O)c3ccc(F)cc3)cc12 0.161%
Cc1cccc(CC(=O)NC2CC(=O)N(c3cccc(F)c3)C2)c1 (stereo not drawn) 4.58%
COc1ccc(OC)c(NC(=O)C2CCN(S(=O)(=O)c3ccc(C)cc3)CC2)c1 -18.3%
CC(C)CCNC(=O)C(=O)Nc1c2c(nn1-c1ccccc1)CS(=O)(=O)C2 -6.48%
O=C(CSc1nc2cc3ccccc3cc2[nH]1)Nc1cccc(C(F)(F)F)c1 -4.79%
CNS(=O)(=O)c1cn(CC(=O)Nc2ccc(OC)c(Cl)c2)cc1S(=O)(=O)NC -5.3%
COc1ccccc1N1CCN(S(=O)(=O)c2ccc(-c3cc(C(F)(F)F)on3)s2)CC1 -8.53%
Cc1cc(F)ccc1Nc1nc2ccccc2n2nnnc12 -18.9%
CN(C(=O)CSc1nc2ncccc2o1)c1ccc(F)cc1 -16.3%
O=c1c2ccccc2n(Cc2cccc(Cl)c2)c(=O)n1CCc1ccccc1 -5.65%
COc1ccc(-c2cc(C(C)=O)c(C)n2CCC(=O)Nc2cc(C)ccc2OC)cc1 -7.17%
CC(=O)NCCc1nc2ccccc2n1CCCCOc1ccc(Cl)cc1 -12.5%
CCN(c1ccccc1)c1nnc(NC(=O)Nc2cccc(C(F)(F)F)c2)s1 -6.32%
CCOC(=O)c1cc(OC(=O)c2cccc(C)c2)n(-c2ccccc2)n1 -13.3%
COCc1cc(C)nc2sc3c(c12)NC(c1ccc(NC(C)=O)cc1)N(c1ccc(C)cc1)C3=O (stereo not drawn) -8.76%
COc1cccc(CNc2ncnc3onc(-c4ccc(F)cc4)c23)c1 2.88%
CC(=O)Nc1nonc1-c1nnc(SCC(=O)Nc2cc(C)ccc2C)n1-c1ccccc1 -30.3%
O=C1c2ccccc2C(=O)c2c1ccc(O)c2O -15.3%
COc1cccc2cc(-c3nc4sc(C(=O)Nc5ccc(F)cc5F)c(C)c4c(=O)[nH]3)c(=O)oc12 13.9%
Cc1ccc(C)c(N2CCN(c3ncnc4onc(C)c34)CC2)c1 -25.8%
CCOC(=O)c1ccccc1NC(=O)N1CCN2CCCCC2C1 (stereo not drawn) -13.1%
COCc1cc(C)nc2sc3c(=O)n(-c4cc(C)ccc4C)nnc3c12 -5.69%
Cc1ccc(NC(=O)C(=O)NCC(c2cccnc2)N2CCN(C)CC2)cc1C (stereo not drawn) -21.7%
COc1ccc(NC(=O)c2oc3c(c2C)-c2nn(Cc4c(F)cccc4Cl)cc2CC3)c(OC)c1 -17.5%
Cc1ccc(OCC(=O)Nc2ccc(C(=O)OCc3cc(=O)n4nc(C5CC5)sc4n3)cc2)cc1 -13%
COc1ccc(CNc2nc3c(S(=O)(=O)c4ccccc4)nnn3c3ccc(Cl)cc23)cc1 -25.7%
CCOc1ccc(Nc2oc(/C=C/c3ccc(F)cc3)nc2C#N)cc1 -12.9%
COc1ccc(C2C(C(=O)Nc3ccccc3)=C(C)Nc3nc(-c4ccccc4)nn32)cc1OC (stereo not drawn) -5.28%
COc1ccc(OC)c(-c2nc(Nc3ccccc3C)sc2CC(=O)O)c1 -29%
Cc1cc(C)n(-c2nc3ccccc3nc2Nc2cccc(C(F)(F)F)c2)n1 -13.8%
CCOC(=O)c1ccccc1NC(=O)CSc1ccc(-c2sc(-c3ccccc3)nc2C)nn1 -5.04%
O=C1CCSC2(C(=O)N(Cc3ccc(F)cc3)c3ccccc32)N1c1ccccc1 (stereo not drawn) -14.1%
CCc1ccc(NC(=O)c2cc3ccccn3n2)cc1 -10.7%
Cc1cc(C)c2c(CC(=O)Nc3nnc(C(C)C)s3)coc2c1 -10.5%
Fc1ccccc1CNCCCSc1nnnn1-c1ccccc1 -9.52%
O=C(CSc1nc(=O)[nH]c2c1CCCC2)Nc1cc(C(F)(F)F)ccc1Cl -5.55%
CCOC(=O)c1cccc(NC(=O)c2cc3c(Cl)nc4ccc(C)cc4c3s2)c1 -1.27%
CCc1ccc(NS(=O)(=O)c2ccc3[nH]cc(C(=O)NC4CCCC4)c(=O)c3c2)cc1 13.2%
COc1ccc(-n2cc(-c3ccccc3)c3c(SC(C)C(C)=O)ncnc32)cc1 (stereo not drawn) -2.92%
CC(C)CCNC(=O)CN1C(=O)COc2ccc(S(=O)(=O)N3CCOCC3)cc21 -6.99%
COc1ccc(NC(=O)C(=O)NCCc2ccccc2)cc1OC -8.73%
CC(C)c1ccc(NC(=O)C2CCCN(S(=O)(=O)c3ccc(Br)s3)C2)cc1 (stereo not drawn) -41.8%
COc1cccc(C(=O)Nc2ccccc2C(=O)OCc2cc(=O)n3nc(C)sc3n2)c1 -5.75%
CC1CCC(NC(=O)c2ccc3c(c2)N(Cc2cccc(F)c2)C(=O)c2ccccc2S3)CC1 (stereo not drawn) -2.01%
CCc1nnc(SCc2ccc(F)cc2Cl)c2cc3sccc3n12 -15.6%
Cc1ccc(C)c(NC(=O)C(C)n2c(=O)cc(C(F)(F)F)c3c(C)nn(C)c32)c1 (stereo not drawn) 7.47%
CCN1CCN(C(=O)c2ccc3c(c2)N(Cc2cccc(Cl)c2)C(=O)c2ccccc2S3(=O)=O)CC1 -4.91%
COc1ccccc1CNC(=O)CSc1ncc2c(n1)-c1ccccc1N(Cc1ccc(C)cc1)S2(=O)=O -9.14%
COc1ccc(-c2noc(C3CC(=O)N(c4ccc(C)c(F)c4)C3)n2)c(OC)c1 (stereo not drawn) -20.7%
CCc1ccc(CNC(=O)c2ccc3c(c2)nc2n3CCOC2)cc1 -1.07%
Fc1ccc(-c2cc(-c3nc(-c4cccc(Cl)c4)no3)[nH]n2)cc1 -24.9%
COc1cc(OC)c(OC)cc1CN1CCc2nc(N3CCN(c4ncccn4)CC3)ncc2C1 -12.6%
Cc1ccc(CNC(=O)c2cc3sccc3n2Cc2ccc(F)cc2)cc1 -13.1%
CCC(=O)N1CCc2cc(S(=O)(=O)CCC(=O)N3CCN(c4ccccc4F)CC3)ccc21 -4.07%
CC(=O)c1ccc(NS(=O)(=O)c2ccc3[nH]c4c(c3c2)CCCCCC4)cc1 -15.3%
CCC(CC)C(=O)N1CCc2cc(OC)c(OC)cc2C1COc1ccccc1OC (stereo not drawn) -18.7%
CN1CCN(CCCN2c3ccccc3Sc3ccc(Cl)cc32)CC1 -9.39%
Cc1ccc(C)c(Cn2nnc(C(=O)NCc3ccccc3)c2N)c1 -12.4%
CN1CCN(C(CNC(=O)C(=O)Nc2ccc(F)cc2)c2cccnc2)CC1 (stereo not drawn) -12.6%
Cc1ccc(NC(=O)CN2C(=O)CCc3cc(S(=O)(=O)N4CCOCC4)ccc32)c(C)c1 -9.86%
CCOc1ccc(CNC(=O)c2sc3nc(C)cc(C)c3c2-n2cccc2)cc1 -0.608%
Cc1cc2oc(C(=O)Nc3nc(-c4ccccc4)ns3)c(C)c2cc1Cl -14%
COc1ccc(-c2nn(C)c3sc(C(=O)N4CCN(c5cc(Cl)ccc5C)CC4)cc23)cc1OC -2.33%
O=C(c1ccc2c(c1)N(Cc1cccc(Cl)c1)C(=O)c1ccccc1S2(=O)=O)N1CCN(c2cccc(C(F)(F)F)c2)CC1 -16.9%
CCOc1ccc(-c2nonc2NC(=O)COc2ccc(C)c(C)c2)cc1OCC 8.26%
CCOc1ccc(NC(=O)CSc2nnc(NC(=O)Nc3ccccc3)s2)cc1 -0.146%
Cc1nc2cc(-c3cccc(F)c3)nn2c(C)c1CCC(=O)NC1CCCCC1 -23.6%
Cc1ccc(Cn2c(=O)n(Cc3ccc(Cl)cc3)c(=O)c3cccnc32)cc1 -16%
CCOc1ccc(-c2cnc(NCc3cccc(Cl)c3)n2C)cc1 -12.2%
COc1ccc(CCNC(=O)Cn2c(=O)c3cccn3c3ccc(F)cc32)cc1OC -17.4%
COc1ccc(C(=O)CCC(=O)Nc2cccc(C(C)=O)c2)cc1 -17.3%
Cc1ccccc1-n1nc(CO)c(C(=O)NCCc2ccccc2)n1 0.481%
COc1cccc(NC(=O)C(=O)NCC(c2cccnc2)N2CCN(c3ccccc3)CC2)c1 (stereo not drawn) -14.9%
CCOC(=O)CSc1nc2ccc(NC(=O)COc3ccccc3)cc2s1 -7.11%
COc1ccc(OC)c(CNc2ncnc3onc(-c4ccc(Cl)cc4)c23)c1 -6.49%
Cc1cccc(CSc2cn(CC(=O)N3CCCCCC3)c3ccccc23)c1 -15%
CC1CCc2c(sc(NC(=O)c3ccccc3)c2C(=O)Nc2ccccc2)C1 (stereo not drawn) -10.4%
CCCOc1ccc(-c2cccc(NS(=O)(=O)c3cc(OC)ccc3OC)c2)nn1 -10.8%
O=C(NCc1ccc(Cl)cc1)c1cnc2sc(N3CCCCCC3)nn2c1=O -8.91%
CCCCN(C)CCNC(=O)C1CCN(c2nc3ccc(CC)cc3s2)CC1 -14.4%
COc1ccc(C(c2c(O)cc(C)n(Cc3ccco3)c2=O)N2CCN(c3ccccc3)CC2)cc1 (stereo not drawn) -0.432%
COc1ccc(Cl)cc1NC(=O)C1CCN(c2ncnc3c2nc2n3CCCCC2)CC1 -17.8%
CCN(CC)c1ccc(NC(=O)c2cnn3c(C(F)F)cc(-c4ccccc4)nc23)cc1 -27.9%
O=C(CCC(=O)N1Cc2ccccc2Oc2ncccc21)NCc1ccccc1Cl 2.72%
CCN(CC)CC(=O)OCC(=O)[C@@]1(O)CC[C@H]2[C@@H]3CCC4=CC(=O)CC[C@]4(C)[C@H]3[C@@H](O)C[C@@]21C -14.9%
COc1ccc(N2C(=O)CSC23C(=O)N(Cc2cccc(C(F)(F)F)c2)c2ccccc23)cc1 (stereo not drawn) -15.8%
Cc1ccc(Nc2c3c(nc4nc(-c5cccs5)nn24)CCCC3)cc1F -8.96%
CCOc1ccc2oc(=O)cc(CN3CCN(Cc4ccc(C)cc4)CC3)c2c1 -26.1%
Cc1oc(-c2ccc(Cl)cc2)nc1CS(=O)CC(=O)NCCc1ccccc1 (stereo not drawn) -6.4%
CCOC(=O)Cn1nc(C)c(NC(=O)COc2ccccc2)c1C -10.8%
COc1ccccc1CNc1nc(-c2ccco2)nn1S(C)(=O)=O 3.78%
Cc1cccc(Cn2c(=O)n(CCCC(=O)NCc3ccccc3Cl)c(=O)c3ccccc32)c1 5.21%
COc1ccc(S(=O)(=O)NC(C)(C)C)cc1-c1nnc2c3ccccc3c(C)nn12 -9.94%
Cc1ccc(S(=O)(=O)c2nc(-c3cccs3)oc2SCC(=O)Nc2cc(C)cc(C)c2)cc1 -26.8%
COc1ccccc1OCC(=O)N(Cc1cccs1)C1CCS(=O)(=O)C1 (stereo not drawn) -10.7%
